# The other results are listed elsewhere or left out.
# Legend:
# Assay in all cases: glycan array binding signal (z-score within array); higher = stronger binding
# Settings in all cases: glycan notation: IUPAC condensed, linker removed
# [1] = molecular target: GlcNAc(b1-3)Gal(b1-4)GlcNAc(b1-3)Gal(b1-4)GlcNAc(b1-3)GalNAc
# How it was run: (§1)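 Glycan array binding is given as a within-array Z-score, which can be read as non-binding when negative. The arrays, 3228 of them, came from the Consortium for Functional Glycomics database and were retained only where the protein sequence was available. Z-scores were averaged across arrays of the same protein sequence at different concentrations or buffers and across linkers.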
# [2] = molecular target: GlcNAc(b1-3)Gal(b1-4)GlcNAc(b1-3)GalNAc
# How it was run: as §1
# [3] = molecular target: GlcNAc(b1-3)Gal(b1-4)GlcNAc(b1-3)[GlcNAc(b1-3)Gal(b1-4)GlcNAc(b1-3)]GalNAc
# How it was run: as §1
# [4] = molecular target: GlcNAc(b1-3)Gal(b1-4)GlcNAc(b1-6)[Gal(b1-3)]GalNAc
# How it was run: as §1
# [5] = molecular target: GlcNAc(b1-3)Gal(b1-4)GlcNAc(b1-6)[GlcNAc(b1-3)Gal(b1-3)]GalNAc
# How it was run: as §1
# [6] = molecular target: GlcNAc(b1-3)Gal(b1-4)GlcNAc(b1-6)[GlcNAc(b1-3)]Gal(b1-4)GlcNAc
# How it was run: as §1
# GlcNAc(b1-3)GalNAc = molecular target: GlcNAc(b1-3)GalNAc
# How it was run: as §1
# GlcNAc(b1-3)Man = molecular target: GlcNAc(b1-3)Man
# How it was run: as §1
# [7] = molecular target: GlcNAc(b1-3)[GlcNAc(b1-4)][GlcNAc(b1-6)]GlcNAc
# How it was run: as §1
# [8] = molecular target: GlcNAc(b1-3)[GlcNAc(b1-6)]Gal(b1-4)GlcNAc
# How it was run: as §1
# [9] = molecular target: GlcNAc(b1-3)[GlcNAc(b1-6)]GalNAc
# How it was run: as §1
# [10] = molecular target: GlcNAc(b1-4)Gal(b1-4)GlcNAc
# How it was run: as §1
# GlcNAc(b1-4)GlcNAc = molecular target: GlcNAc(b1-4)GlcNAc
# How it was run: as §1
# [11] = molecular target: GlcNAc(b1-4)GlcNAc(b1-4)GlcNAc
# How it was run: as §1
# [12] = molecular target: GlcNAc(b1-4)GlcNAc(b1-4)GlcNAc(b1-4)GlcNAc(b1-4)GlcNAc
# How it was run: as §1
# [13] = molecular target: GlcNAc(b1-4)GlcNAc(b1-4)GlcNAc(b1-4)GlcNAc(b1-4)GlcNAc(b1-4)GlcNAc
# How it was run: as §1
# [14] = molecular target: GlcNAc(b1-4)[GlcNAc(b1-6)]GalNAc
# How it was run: as §1
# [15] = molecular target: GlcNAc(b1-6)Gal(b1-4)GlcNAc
# How it was run: as §1
# GlcNAc(b1-6)GalNAc = molecular target: GlcNAc(b1-6)GalNAc
# How it was run: as §1
# [16] = molecular target: GlcNAc6S(b1-3)Gal(b1-4)GlcNAc
# How it was run: as §1
# Kdn(a2-3)Gal(b1-3)GalNAc = molecular target: Kdn(a2-3)Gal(b1-3)GalNAc
# How it was run: as §1
# Kdn(a2-3)Gal(b1-3)GlcNAc = molecular target: Kdn(a2-3)Gal(b1-3)GlcNAc
# How it was run: as §1
# Kdn(a2-3)Gal(b1-4)Glc = molecular target: Kdn(a2-3)Gal(b1-4)Glc
# How it was run: as §1
# Kdn(a2-3)Gal(b1-4)GlcNAc = molecular target: Kdn(a2-3)Gal(b1-4)GlcNAc
# How it was run: as §1
# [17] = molecular target: Kdn(a2-3)Gal(b1-4)[Fuc(a1-3)]GlcNAc
# How it was run: as §1
# Kdn(a2-6)Gal(b1-4)GlcNAc = molecular target: Kdn(a2-6)Gal(b1-4)GlcNAc
# How it was run: as §1
# [18] = molecular target: Man(a1-2)Man(a1-2)Man(a1-3)Man
# How it was run: as §1
# [19] = molecular target: Man(a1-2)Man(a1-2)Man(a1-6)[Man(a1-3)]Man
# How it was run: as §1
# Man(a1-2)Man(a1-3)Man = molecular target: Man(a1-2)Man(a1-3)Man
# How it was run: as §1
# [20] = molecular target: Man(a1-2)Man(a1-3)[Man(a1-2)Man(a1-6)]Man
# How it was run: as §1
# [21] = molecular target: Man(a1-2)Man(a1-3)[Man(a1-2)Man(a1-6)]Man(a1-6)[Man(a1-2)Man(a1-2)Man(a1-3)]Man
# How it was run: as §1
# [22] = molecular target: Man(a1-2)Man(a1-3)[Man(a1-2)Man(a1-6)]Man(a1-6)[Man(a1-2)Man(a1-2)Man(a1-3)]Man(b1-4)GlcNAc(b1-4)GlcNAc
# How it was run: as §1
# [23] = molecular target: Man(a1-2)Man(a1-3)[Man(a1-6)]Man(a1-6)[Man(a1-2)Man(a1-3)]Man(b1-4)GlcNAc(b1-4)GlcNAc
# How it was run: as §1
# [24] = molecular target: Man(a1-2)Man(a1-6)[Man(a1-3)]Man(a1-6)[Man(a1-2)Man(a1-2)Man(a1-3)]Man
# How it was run: as §1
# [25] = molecular target: Man(a1-2)Man(a1-6)[Man(a1-3)]Man(a1-6)[Man(a1-2)Man(a1-2)Man(a1-3)]Man(b1-4)GlcNAc(b1-4)GlcNAc
# How it was run: as §1
# Man(a1-3)[Man(a1-6)]Man = molecular target: Man(a1-3)[Man(a1-6)]Man
# How it was run: as §1
# [26] = molecular target: Man(a1-3)[Man(a1-6)]Man(a1-6)[Man(a1-2)Man(a1-3)]Man(b1-4)GlcNAc(b1-4)GlcNAc
# How it was run: as §1
binder,measurement,setting,value
Clec18C (Homo sapiens) (protein) MLHPETSPGRGHLLAVLLALLGTAWAEVWPPQLQEQAPMAGALNRKESFLLLSLHNRLRSWVQPPAADMRRLDWSDSLAQLAQARAALCGTPTPSLASGLWRTLQVGWNMQLLPAGLVSFVEVVSLWFAEGQRYSHAAGECARNATCTHYTQLVWATSSQLGCGRHLCSAGQAAIEAFVCAYSPRGNWEVNGKTIVPYKKGAWCSLCTASVSGCFKAWDHAGGLCEVPRNPCRMSCQNHGRLNISTCHCHCPPGYTGRYCQVRCSLQCVHGRLREEECSCVCDIGYGGAQCATKVHFPFHTCDLRIDGDCFMVSSEADTYYRARMKCQRKGGVLAQIKSQKVQDILAFYLGRLETTNEVIDSDFETRNFWIGLTYKTAKDSFRWATGEHQAFTSFAFGQPDNHGFGNCVELQASAAFNWNNQRCKTRNRYICQFAQEHISRWGPGS,glycan array binding signal (z-score),[1],-0.584
same,glycan array binding signal (z-score),[2],-0.538
same,glycan array binding signal (z-score),[3],-0.58
same,glycan array binding signal (z-score),[4],-0.398
same,glycan array binding signal (z-score),[5],-0.43
same,glycan array binding signal (z-score),[6],-0.647
same,glycan array binding signal (z-score),GlcNAc(b1-3)GalNAc,-0.509
same,glycan array binding signal (z-score),GlcNAc(b1-3)Man,-0.616
same,glycan array binding signal (z-score),[7],-0.452
same,glycan array binding signal (z-score),[8],-0.6
same,glycan array binding signal (z-score),[9],-0.541
same,glycan array binding signal (z-score),[10],-0.6
same,glycan array binding signal (z-score),GlcNAc(b1-4)GlcNAc,-0.314
same,glycan array binding signal (z-score),[11],-0.598
same,glycan array binding signal (z-score),[12],-0.553
same,glycan array binding signal (z-score),[13],-0.601
same,glycan array binding signal (z-score),[14],-0.347
same,glycan array binding signal (z-score),[15],1.38
same,glycan array binding signal (z-score),GlcNAc(b1-6)GalNAc,0.28
same,glycan array binding signal (z-score),[16],-0.184
same,glycan array binding signal (z-score),Kdn(a2-3)Gal(b1-3)GalNAc,-0.52
same,glycan array binding signal (z-score),Kdn(a2-3)Gal(b1-3)GlcNAc,-0.571
same,glycan array binding signal (z-score),Kdn(a2-3)Gal(b1-4)Glc,-0.499
same,glycan array binding signal (z-score),Kdn(a2-3)Gal(b1-4)GlcNAc,-0.603
same,glycan array binding signal (z-score),[17],-0.236
same,glycan array binding signal (z-score),Kdn(a2-6)Gal(b1-4)GlcNAc,-0.559
same,glycan array binding signal (z-score),[18],-0.569
same,glycan array binding signal (z-score),[19],-0.632
same,glycan array binding signal (z-score),Man(a1-2)Man(a1-3)Man,-0.567
same,glycan array binding signal (z-score),[20],-0.406
same,glycan array binding signal (z-score),[21],-0.536
same,glycan array binding signal (z-score),[22],-0.452
same,glycan array binding signal (z-score),[23],-0.302
same,glycan array binding signal (z-score),[24],0.701
same,glycan array binding signal (z-score),[25],-0.504
same,glycan array binding signal (z-score),Man(a1-3)[Man(a1-6)]Man,-0.507
same,glycan array binding signal (z-score),[26],1.14

# Source: the supplement of paper PMC8728848
